Test results from article PMC10632515.
Results are given in words; binding and its absence hold for the method and conditions named. In cells and extracts the contact can be indirect. Some results given as binding are weak or reduced against the parent protein; the word gives no strength. For some of these results: Where a sequence is shown, tags or fusion partners need not be part of it. Values belong to the substance of their own block, whether it stands above or below them.

Amino acid sequences for entries named in this document (tags omitted). A change or cut given only in a name is not applied to a line headed by its entry.
UniProt Q12834: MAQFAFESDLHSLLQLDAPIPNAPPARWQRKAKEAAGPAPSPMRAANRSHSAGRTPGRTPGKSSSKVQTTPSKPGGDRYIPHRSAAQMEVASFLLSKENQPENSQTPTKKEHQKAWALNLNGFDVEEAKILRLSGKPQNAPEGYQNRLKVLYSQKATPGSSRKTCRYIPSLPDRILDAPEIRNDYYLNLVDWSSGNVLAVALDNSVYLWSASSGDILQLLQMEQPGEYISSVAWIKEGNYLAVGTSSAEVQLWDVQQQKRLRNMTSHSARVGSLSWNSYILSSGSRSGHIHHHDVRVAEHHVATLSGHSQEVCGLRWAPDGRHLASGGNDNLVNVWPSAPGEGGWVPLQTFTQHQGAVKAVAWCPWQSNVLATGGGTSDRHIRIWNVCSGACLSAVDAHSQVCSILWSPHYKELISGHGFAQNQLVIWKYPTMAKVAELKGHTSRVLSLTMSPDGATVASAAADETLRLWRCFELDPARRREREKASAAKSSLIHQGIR
UniProt Q9UM11: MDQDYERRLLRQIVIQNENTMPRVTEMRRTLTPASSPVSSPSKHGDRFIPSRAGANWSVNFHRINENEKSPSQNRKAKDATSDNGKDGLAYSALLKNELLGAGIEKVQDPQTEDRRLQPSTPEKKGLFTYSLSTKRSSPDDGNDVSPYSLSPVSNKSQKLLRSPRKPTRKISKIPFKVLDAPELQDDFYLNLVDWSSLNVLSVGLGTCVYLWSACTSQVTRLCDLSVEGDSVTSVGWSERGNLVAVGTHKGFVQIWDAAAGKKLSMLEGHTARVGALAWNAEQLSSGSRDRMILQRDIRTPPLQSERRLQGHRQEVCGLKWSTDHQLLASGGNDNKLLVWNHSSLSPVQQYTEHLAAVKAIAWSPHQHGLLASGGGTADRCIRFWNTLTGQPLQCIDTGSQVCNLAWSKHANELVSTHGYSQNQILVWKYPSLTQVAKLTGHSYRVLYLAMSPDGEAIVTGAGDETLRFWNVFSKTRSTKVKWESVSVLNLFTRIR
UniProt Q969U6: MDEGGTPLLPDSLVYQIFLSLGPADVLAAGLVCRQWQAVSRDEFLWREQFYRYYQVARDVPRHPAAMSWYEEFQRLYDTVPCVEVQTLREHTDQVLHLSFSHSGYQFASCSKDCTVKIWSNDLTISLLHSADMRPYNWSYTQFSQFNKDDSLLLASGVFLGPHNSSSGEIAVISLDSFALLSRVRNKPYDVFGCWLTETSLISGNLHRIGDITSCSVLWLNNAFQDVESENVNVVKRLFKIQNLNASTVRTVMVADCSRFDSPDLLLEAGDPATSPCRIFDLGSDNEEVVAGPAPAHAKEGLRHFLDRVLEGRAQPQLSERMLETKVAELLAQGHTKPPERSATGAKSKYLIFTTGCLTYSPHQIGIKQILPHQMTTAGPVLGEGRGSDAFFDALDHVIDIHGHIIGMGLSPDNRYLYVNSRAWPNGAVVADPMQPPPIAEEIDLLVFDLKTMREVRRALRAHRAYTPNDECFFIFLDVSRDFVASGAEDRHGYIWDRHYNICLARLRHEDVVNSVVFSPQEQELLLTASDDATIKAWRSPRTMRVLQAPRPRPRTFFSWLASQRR
UniProt Q969H0: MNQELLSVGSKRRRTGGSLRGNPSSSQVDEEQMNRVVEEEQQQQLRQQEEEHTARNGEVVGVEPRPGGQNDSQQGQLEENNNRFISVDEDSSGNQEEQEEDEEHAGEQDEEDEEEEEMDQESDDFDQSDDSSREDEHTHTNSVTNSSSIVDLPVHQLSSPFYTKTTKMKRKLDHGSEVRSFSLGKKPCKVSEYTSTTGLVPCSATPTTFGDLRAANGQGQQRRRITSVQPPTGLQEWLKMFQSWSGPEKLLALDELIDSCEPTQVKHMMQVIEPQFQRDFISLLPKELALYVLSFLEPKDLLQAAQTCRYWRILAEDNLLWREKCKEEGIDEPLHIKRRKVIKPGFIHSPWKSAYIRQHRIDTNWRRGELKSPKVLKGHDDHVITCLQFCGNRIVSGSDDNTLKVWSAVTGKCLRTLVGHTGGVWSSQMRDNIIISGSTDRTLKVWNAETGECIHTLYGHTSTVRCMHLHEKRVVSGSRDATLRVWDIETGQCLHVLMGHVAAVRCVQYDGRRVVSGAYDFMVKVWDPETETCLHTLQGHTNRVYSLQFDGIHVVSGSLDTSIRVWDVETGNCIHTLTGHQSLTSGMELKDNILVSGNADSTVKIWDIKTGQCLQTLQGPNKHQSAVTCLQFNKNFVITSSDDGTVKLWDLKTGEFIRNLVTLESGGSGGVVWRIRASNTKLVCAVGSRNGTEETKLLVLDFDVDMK
UniProt Q5XUX1: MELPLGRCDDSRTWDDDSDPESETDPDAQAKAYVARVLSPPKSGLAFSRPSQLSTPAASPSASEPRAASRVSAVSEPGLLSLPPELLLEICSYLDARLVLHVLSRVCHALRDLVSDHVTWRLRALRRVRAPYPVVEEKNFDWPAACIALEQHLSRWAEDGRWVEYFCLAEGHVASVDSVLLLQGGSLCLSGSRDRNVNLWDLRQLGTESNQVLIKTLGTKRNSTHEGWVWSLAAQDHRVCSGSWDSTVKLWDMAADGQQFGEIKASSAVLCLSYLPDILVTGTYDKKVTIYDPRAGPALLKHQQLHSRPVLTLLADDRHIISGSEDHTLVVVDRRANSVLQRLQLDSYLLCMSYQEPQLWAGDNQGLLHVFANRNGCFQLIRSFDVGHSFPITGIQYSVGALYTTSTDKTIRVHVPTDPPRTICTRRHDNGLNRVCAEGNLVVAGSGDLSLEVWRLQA
UniProt Q9Y297: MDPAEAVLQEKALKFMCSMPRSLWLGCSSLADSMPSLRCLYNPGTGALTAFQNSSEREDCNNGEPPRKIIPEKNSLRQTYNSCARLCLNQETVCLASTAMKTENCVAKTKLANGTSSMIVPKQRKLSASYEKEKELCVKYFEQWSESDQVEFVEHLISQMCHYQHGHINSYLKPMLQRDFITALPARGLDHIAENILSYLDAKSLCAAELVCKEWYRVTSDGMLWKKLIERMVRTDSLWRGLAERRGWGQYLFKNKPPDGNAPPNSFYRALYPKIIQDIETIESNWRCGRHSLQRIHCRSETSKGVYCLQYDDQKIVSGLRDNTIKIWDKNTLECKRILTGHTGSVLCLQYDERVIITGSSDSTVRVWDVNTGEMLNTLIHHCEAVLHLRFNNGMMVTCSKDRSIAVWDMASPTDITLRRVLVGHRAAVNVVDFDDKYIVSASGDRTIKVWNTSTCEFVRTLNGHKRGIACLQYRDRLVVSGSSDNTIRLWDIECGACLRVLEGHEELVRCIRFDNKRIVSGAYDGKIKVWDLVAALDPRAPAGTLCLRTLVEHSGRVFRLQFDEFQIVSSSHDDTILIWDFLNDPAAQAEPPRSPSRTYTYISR
UniProt Q9UKB1: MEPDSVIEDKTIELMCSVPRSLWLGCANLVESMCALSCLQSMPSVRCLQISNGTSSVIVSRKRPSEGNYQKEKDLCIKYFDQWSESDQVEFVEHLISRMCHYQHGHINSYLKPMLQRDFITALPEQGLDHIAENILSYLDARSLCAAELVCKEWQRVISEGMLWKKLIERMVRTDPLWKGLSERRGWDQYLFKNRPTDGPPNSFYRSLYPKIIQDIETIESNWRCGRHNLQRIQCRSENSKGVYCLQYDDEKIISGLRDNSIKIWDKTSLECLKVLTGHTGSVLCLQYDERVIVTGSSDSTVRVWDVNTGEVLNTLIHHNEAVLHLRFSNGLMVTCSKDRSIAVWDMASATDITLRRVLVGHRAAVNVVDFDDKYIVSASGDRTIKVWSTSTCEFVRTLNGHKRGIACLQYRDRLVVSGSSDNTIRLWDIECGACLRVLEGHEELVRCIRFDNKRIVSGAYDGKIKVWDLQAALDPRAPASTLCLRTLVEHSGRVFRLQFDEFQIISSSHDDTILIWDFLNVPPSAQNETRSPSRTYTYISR
UniProt Q9C0J9: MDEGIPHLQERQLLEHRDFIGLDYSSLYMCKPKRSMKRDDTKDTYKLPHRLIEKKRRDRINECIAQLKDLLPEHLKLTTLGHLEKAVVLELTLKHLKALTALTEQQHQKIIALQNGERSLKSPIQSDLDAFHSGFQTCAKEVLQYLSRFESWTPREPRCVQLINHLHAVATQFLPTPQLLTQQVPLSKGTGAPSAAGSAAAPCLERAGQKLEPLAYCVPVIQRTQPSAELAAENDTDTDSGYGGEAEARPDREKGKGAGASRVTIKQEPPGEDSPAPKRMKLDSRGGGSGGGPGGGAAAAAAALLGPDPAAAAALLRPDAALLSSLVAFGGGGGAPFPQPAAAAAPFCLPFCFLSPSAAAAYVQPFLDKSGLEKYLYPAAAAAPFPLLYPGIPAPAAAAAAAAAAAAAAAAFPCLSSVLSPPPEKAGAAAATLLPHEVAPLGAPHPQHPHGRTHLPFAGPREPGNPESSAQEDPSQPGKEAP

Legend:
[1] = molecular target: FLAG-tagged CDC20 (APC/C subunit) (UniProt Q12834); test: co-IP; HEK293T transfected with FLAG-tagged F-box proteins or the APC/C subunits CDH1 and CDC20; whole-cell extracts immunoprecipitated with anti-FLAG resin, immunoblotting for endogenous SHARP1
[2] = molecular target: FLAG-tagged CDH1 (APC/C subunit) (UniProt Q9UM11); test: as above
FLAG-tagged FBXO17 = molecular target: T1, FLAG-tagged FBXO17 (UniProt Q96EF6); test: as above
T1 sequence: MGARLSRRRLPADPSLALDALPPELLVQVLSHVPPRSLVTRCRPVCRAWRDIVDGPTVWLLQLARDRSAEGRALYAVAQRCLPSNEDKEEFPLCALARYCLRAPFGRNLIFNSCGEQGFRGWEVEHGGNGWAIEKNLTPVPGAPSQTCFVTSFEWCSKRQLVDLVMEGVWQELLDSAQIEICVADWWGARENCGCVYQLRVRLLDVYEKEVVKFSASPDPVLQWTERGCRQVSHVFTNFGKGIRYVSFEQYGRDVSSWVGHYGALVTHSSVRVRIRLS

FLAG-tagged FBXO6 = molecular target: T2, FLAG-tagged FBXO6 (UniProt Q9NRD1); test: as above
T2 sequence: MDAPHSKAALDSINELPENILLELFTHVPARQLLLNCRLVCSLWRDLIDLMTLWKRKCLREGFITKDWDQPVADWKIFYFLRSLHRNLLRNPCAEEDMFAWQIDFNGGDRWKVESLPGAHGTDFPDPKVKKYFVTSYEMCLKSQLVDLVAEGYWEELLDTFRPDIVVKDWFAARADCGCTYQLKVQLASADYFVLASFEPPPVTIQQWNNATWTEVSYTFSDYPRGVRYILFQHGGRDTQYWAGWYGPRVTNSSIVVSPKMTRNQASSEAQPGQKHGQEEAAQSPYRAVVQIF

FLAG-tagged FBXW2 = molecular target: T3, FLAG-tagged FBXW2 (UniProt Q9UKT8); test: as above
T3 sequence: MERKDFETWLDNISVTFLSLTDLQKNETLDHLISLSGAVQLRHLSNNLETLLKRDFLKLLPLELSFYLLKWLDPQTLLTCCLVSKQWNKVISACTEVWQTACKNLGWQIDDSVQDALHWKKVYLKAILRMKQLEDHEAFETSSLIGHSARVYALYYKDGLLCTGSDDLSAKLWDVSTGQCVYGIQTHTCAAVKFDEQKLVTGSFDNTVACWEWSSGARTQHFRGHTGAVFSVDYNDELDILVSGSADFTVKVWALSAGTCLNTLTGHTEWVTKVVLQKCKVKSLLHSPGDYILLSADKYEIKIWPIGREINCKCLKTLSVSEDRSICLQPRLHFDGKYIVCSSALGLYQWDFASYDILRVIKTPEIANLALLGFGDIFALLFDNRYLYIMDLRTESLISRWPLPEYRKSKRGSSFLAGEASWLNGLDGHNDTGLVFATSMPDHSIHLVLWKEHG

FLAG-tagged FBXW4 = molecular target: T4, FLAG-tagged FBXW4 (UniProt P57775); test: as above
T4 sequence: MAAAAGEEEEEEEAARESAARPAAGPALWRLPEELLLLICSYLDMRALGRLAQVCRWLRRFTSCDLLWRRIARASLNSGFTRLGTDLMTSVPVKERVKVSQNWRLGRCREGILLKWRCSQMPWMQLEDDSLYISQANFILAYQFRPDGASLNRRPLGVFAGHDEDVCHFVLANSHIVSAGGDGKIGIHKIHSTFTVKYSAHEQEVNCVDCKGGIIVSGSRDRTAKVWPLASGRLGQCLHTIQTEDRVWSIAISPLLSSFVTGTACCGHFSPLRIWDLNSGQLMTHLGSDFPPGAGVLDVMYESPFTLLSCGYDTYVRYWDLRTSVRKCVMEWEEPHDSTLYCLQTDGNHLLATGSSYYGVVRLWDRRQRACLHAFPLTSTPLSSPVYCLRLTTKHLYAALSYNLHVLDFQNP

FLAG-tagged FBXW5 = FLAG-tagged FBXW5 (UniProt Q969U6); test: as above
FLAG-tagged FBXW7 = FLAG-tagged FBXW7 (UniProt Q969H0); test: as above
FLAG-tagged FBXW9 = FLAG-tagged FBXW9 (UniProt Q5XUX1); test: as above
FLAG-tagged βTrCP1 = FLAG-tagged βTrCP1 (UniProt Q9Y297); test: as above
FLAG-tagged βTrCP2 = FLAG-tagged βTrCP2 (UniProt Q9UKB1); test: as above
[3] = molecular target: HA-epitope tagged SHARP1(S240A/E245A) mutant (UniProt Q9C0J9); test: co-IP; MDA-MB231 parental cells or cells expressing HA-tagged wild-type SHARP1 or SHARP1(S240A/E245A); whole-cell extracts precipitated with HA resin, immunoblotting for endogenous βTrCP1
[4] = molecular target: HA-epitope tagged wild type SHARP1 (UniProt Q9C0J9); test: as above
[5] = molecular target: HA-epitope tagged wild type SHARP1 (UniProt Q9C0J9); test: co-IP; whole-cell extracts of MDA-MB231 cells (stably expressing HA-tagged SHARP1, or parental) immunoprecipitated with an anti-SHARP1 antibody, immunoblotting; Triton lysis buffer with 250 mM NaCl
[6] = molecular target: endogenous SHARP1 (parental MDA-MB231 cells) (human (endogenous in MDA-MB231)) (UniProt Q9C0J9); test: as above
[7] = molecular target: FLAG-HA-epitope tagged SHARP1 (Split and Hairy-related Protein 1) (UniProt Q9C0J9); test: co-IP; HEK293T transfected with empty vector or FLAG-tagged SHARP1; whole-cell extracts immunoprecipitated with anti-FLAG resin, immunoblotting

binding [1]: no binding
binding [2]: no binding
binding (FLAG-tagged FBXO17): no binding
binding (FLAG-tagged FBXO6): no binding
binding (FLAG-tagged FBXW2): no binding
binding (FLAG-tagged FBXW4): no binding
binding (FLAG-tagged FBXW5): no binding
binding (FLAG-tagged FBXW7): no binding
binding (FLAG-tagged FBXW9): no binding
binding (FLAG-tagged βTrCP1): binds
binding (FLAG-tagged βTrCP2): binds
Substance: endogenous SHARP1 (HEK293T cells) (from UniProt Q9C0J9 1-482)

binding [3]: no binding
binding [4]: binds
binding [5]: binds
binding [6]: binds
Substance: endogenous βTrCP1 (MDA-MB231 cells) (from UniProt Q9Y297 1-605)

binding [7]: binds
Substance: βTrCP1 (endogenous, HEK293T cells) (from UniProt Q9Y297 1-605)
